Results from the supplement of paper PMC9446081.
Among all 39,000 compounds or so, about 220 (0.56%) showed activity. This is one part of the list.

test system: Escherichia coli K-12 BW25113; assay: relative growth (OD600 normalised to plate interquartile mean) (fraction); higher = less growth inhibition, active = 0.2 or less; settings: 50 µM; LB; incubation time: overnight (16-24 h)
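Note: static incubation at 37 °C against the wild-type strain, values averaged over two biological replicates.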

SMILES	relative growth
O=C(CCCCCCC(=O)Nc1cccc(C(=O)NCCOCCOCCNC(=O)c2cccc(NC(=O)CCCCCCC(=O)NO)c2)c1)NO	inactive: 1.02
O=C(O)c1cc(=O)[nH]c(=O)[nH]1	inactive: 1.01
O=C(NCC1CC1)[C@H]1[C@H](CO)[C@H]2Cn3c(cccc3=O)[C@@H]1N2C(=O)c1cccnc1	inactive: 0.975
COc1ccc(S(=O)(=O)Nc2ccc3c(c2)CC(=O)N([C@@H](C)CO)C[C@@H](C)[C@H](CN(C)Cc2ccc(C(=O)O)cc2)O3)cc1	inactive: 1.01
C[C@H](CO)N1C[C@H](C)[C@H](CN(C)Cc2ccc(Oc3ccccc3)cc2)Oc2ccc(NC(=O)Nc3ccc4c(c3)OCO4)cc2C1=O	inactive: 1.04
C/C=C/c1ccc2c(c1)O[C@H](CN(C)S(=O)(=O)c1ccc(F)cc1)[C@H](C)CN([C@H](C)CO)S2(=O)=O	inactive: 0.998
O=C(C[C@H]1CC[C@@H]2[C@H](COC[C@H](O)CN2C(=O)Nc2ccc(F)cc2)O1)NCCCN1CCOCC1	inactive: 0.942
NCc1ccc(S(=O)(=O)O)cc1	inactive: 0.993
C[C@@H]1CN([C@H](C)CO)C(=O)c2cccc(NC(=O)CCCCCC(=O)Nc3ccccc3N)c2O[C@@H]1CN(C)Cc1ccccc1	inactive: 1
Cc1ccc(S(=O)(=O)N(C)C[C@@H]2Oc3c(NC(=O)c4cc(C)nn4C)cccc3C(=O)N([C@H](C)CO)C[C@H]2C)cc1	inactive: 1
C[C@@H]1CCCCO[C@H](CN(C)C(=O)Cc2ccccc2)[C@@H](C)CN([C@H](C)CO)C(=O)c2cc(NC(=O)Nc3ccc4c(c3)OCO4)ccc2O1	inactive: 1.03
C[C@H](CO)N1C[C@H](C)[C@H](CN(C)Cc2ccc(C(F)(F)F)cc2)Oc2ccc(NC(=O)Nc3ccccc3)cc2C1=O	inactive: 1.03
CCc1nnc(SCC(=O)O)n1N	inactive: 0.992
CCO[C@H]1OC(C(=O)N2CCN(Cc3ccccc3)CC2)=C[C@@H](c2cn(C(C)=O)c3ccccc23)[C@@H]1CCCOC(=O)NCCCCCC(=O)NO	inactive: 0.978
O=C(C[C@H]1CC[C@H]2[C@@H](COC[C@@H](O)CN2C(=O)Nc2cccc(Cl)c2)O1)NCCCN1CCOCC1	inactive: 0.877
CC(C)CC#Cc1ccc2c(c1)O[C@H](CN(C)C(=O)c1cccnc1)[C@H](C)CN([C@H](C)CO)S2(=O)=O	inactive: 0.976
COc1ccc(NC(=O)Nc2ccc3c(c2)C(=O)N([C@H](C)CO)C[C@@H](C)[C@H](CN(C)S(=O)(=O)c2ccc(F)cc2)OCCCC[C@H](C)O3)cc1	inactive: 1.04
